Laboratory results: publication PMC12216098, “Structure of a transcribing Pol II-DSIF-SPT6-U1 snRNP complex” (Nature Communications, 2025)

Biological target: Human SPT6 NTD joined to the CTR by a 3x GSA linker, as used for ITC (human, lambda phosphatase-treated. Limits come from the primers: NTD ends LESSHLT, CTR starts PGITPS and ends at the C-terminus)
Assay: ITC; U1A in the syringe (150-550 μM), SPT6 construct in the cell (10-35 μM); 25 °C; SEC300 Buffer (20 mM HEPES-NaOH pH 7.5, 300 mM NaCl); one set of binding sites model
Conditions: both partners purified

B1: Human U1A (natural protein)
chain: not shown
notes: human U1A, amplified from human cDNA with primers from the start codon (MAVPET) to the stop codon (ISFAKK); source: E. coli BL21 (DE3) RIL, purified (HisTrap, amylose, TEV, heparin, Superdex 75); not shown: His6, N-terminal, cleaved; MBP, N-terminal, cleaved
Binder B1 has a Kd of 1340 nM.
